Reference: the supplement of paper PMC3334620
Whole data set: some 33,000 sequences, median “E-score (-0.5 to 0.5)” near -0.04, cut for the highest 2% near 0.36. This is one part of the list.

Each sequence was assayed against T1, Hmlalpha2 (UniProt P0CY09) (assay: PBM E-score (8-mer binding enrichment) (E-score (-0.5 to 0.5)); higher = stronger / more preferred TF binding; most listed sequences are background and not binding sites). Conditions: protein concentration: 200 nM; construct: GST-full length.
T1 sequence: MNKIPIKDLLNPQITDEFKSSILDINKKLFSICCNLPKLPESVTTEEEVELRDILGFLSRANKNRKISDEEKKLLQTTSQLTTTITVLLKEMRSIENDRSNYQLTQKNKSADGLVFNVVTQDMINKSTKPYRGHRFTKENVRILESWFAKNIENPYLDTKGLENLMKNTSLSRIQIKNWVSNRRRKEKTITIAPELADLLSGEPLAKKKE
How it was run: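 Universal all-10-mer Agilent arrays, fresh or stripped once, were converted to double-stranded form by primer extension. GST-tagged yeast transcription factors from PURExpress in vitro transcription/translation, full-length or DNA-binding domain only, were applied at about 100-200 nM and detected with fluorescent anti-GST. After masliner normalisation, the Universal PBM Analysis Suite scored each ungapped eight-base word together with its reverse complement by E-score.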

Sequence	PBM E-score
ATCCCTCA	-0.175
AATACTCT	0.168
AGAAGACT	-0.154
ACGTCCAG	-0.123
ATAATTTA	0.175
CGCTTGTA	0.318
GAGTCACC	-0.304
GCCGGCAA	-0.171
ACCTAGGA	-0.107
AAAGGGAG	-0.199
CTATTGTA	0.298
ACACTGGG	0.0176
ATATCTTA	0.139
ACGCCAGG	0.0642
GGAATGCC	-0.267
AACTTACT	0.0183
TCATCTCA	-0.113
CAGCTAAC	-0.0783
CCGATGTC	-0.0651
TAACGAGA	0.172
GCACCACA	-0.175
AGCACCAG	-0.15
CCGCCTCC	-0.329
AATAGGTA	0.116
CGACCTTA	-0.0344

Sequence	PBM E-score
AAGTTCTA	-0.0332
AGATGTGC	-0.112
AAAACCAT	0.03
CGGTGGCA	-0.323
TTATTGAA	0.134
GCCGCTAA	-0.0775
ATTCATGG	0.102
AGCTGTAC	-0.0823
ACCTGCAA	-0.241
CAATTCTA	0.0503
ATACATGA	0.465
CGCCAAGA	-0.208
CCCATGGA	-0.1
CATTGAAA	0.221
AAGCCGTA	-0.00684
GTGGGTCA	-0.254
AAGGCAGT	-0.131
AAGGCATA	0.0323
ACGCATGG	0.041
GATATCGC	-0.0096
ACGTACGG	-0.0574
GAATAGAA	0.0975
AGACCGAA	-0.0549
CTGCTAAG	-0.239
GCACACGA	0.0924

Sequence	PBM E-score
CGAGGGCA	-0.161
ATCGCTAA	0.0284
ACACAACG	0.377
AACTCGCC	-0.0268
ACTAGACC	-0.0766
AATCATTC	-0.0806
ATCGGTGC	-0.019
ACTTACCG	0.0981
GGAGGCAC	-0.195
CACCTGTA	-0.0584
ATACAAAG	0.306
GACAGAGC	-0.141
GCTACCCA	-0.216
AACTGGGA	-0.0704
AGAGGGTC	-0.282
AGGGAAAA	0.00608
AAAAAGGG	-0.139
CTGCATTC	-0.0597
CAACACAC	0.349
AAGTCGTC	-0.093
TACCCCTA	-0.126
AGCCGTTC	-0.338
TAGATCTA	0.0766
ATATCAAA	-0.0263
GGTCGGAC	-0.195

Sequence	PBM E-score
CGCAAGCG	-0.175
AGTGTAGA	0.171
CGCAGGGA	-0.215
CAGGCCTG	-0.104
ACTCGATG	0.138
CCTCAGGA	-0.333
ACTGGGTG	-0.255
GCTCGCAA	-0.0517
AAAACCCA	0.133
CCTTCTGA	-0.234
ATCTAGAA	0.0729
ACTCTTTC	-0.18
ATGATAAA	0.192
CCTAATAA	0.00353
CTTCGTAA	0.177
CATCTAGG	-0.199
ATATACGG	0.147
CCCCAAAA	-0.0809
ATAAGCCC	-0.241
GGATACGA	0.00133
ACCAAGGT	-0.0823
TCTGTAAA	0.278
ACCATCCT	0.0751
AAATATCG	0.0929
CGCTGGGA	-0.216

Sequence	PBM E-score
AGTGTTGG	0.0228
CAACTACG	0.12
CGAGTACG	0.0847
CGTTGTTA	0.259
GAGGCGCC	-0.28
TAGGAAGA	-0.162
CACCCCAC	-0.241
CGCACGCA	0.0912
GTATTTCA	0.245
CAGGGACA	0.0284
AGCTCGGA	-0.319
ACGGATTC	-0.00996
TATGCGGA	-0.128
AAGTCTCT	-0.161
AGACGGGC	-0.192
ATCTACAG	0.151
GAGCTCAC	-0.325
CAATGTGA	0.224
GCTGGCCA	-0.178
CCTACTTA	-0.0102
ACAGACAA	0.244
CACGGGCG	-0.0985
CTAGGGTC	-0.156
CAGACACA	0.035
AGTTGCTA	0.169

Sequence	PBM E-score
AGGCACAG	-0.131
ATCGGTAA	0.0421
AGCCTTGA	-0.0407
CGAATAAA	0.0121
CGAGGCAA	0.126
TCACTCGA	-0.0745
AACAGCGT	0.171
CAAACCCC	-0.17
CGTGACGC	0.0519
AATCAGCT	0.0644
GAATAAGC	-0.0806
ACAAAGAA	0.251
GATAATGC	0.0782
ATTAACTG	0.134
GATCGGAA	-0.134
GTCTCCTA	-0.125
TGCTAGAA	0.0692
CTGAGGCC	-0.236
GGATGTAC	0.225
AAGATTCT	-0.0883
GTTCACGA	0.0957
CTCTACAG	0.0676
CAGTTCTA	0.0395
ATAGCTAA	-0.129
ATGGCTAA	0.0205

Sequence	PBM E-score
AAACGCGG	0.171
ATCTCCCG	-0.157
CGTTAGTC	-0.0428
ACTAGGAA	-0.201
ATCGAATC	-0.0003
GCAAATGC	-0.12
CCGCCGAC	-0.0741
CGGACGTA	0.0834
AATTAGGT	0.0936
AGCGACCA	-0.105
ATTAAGCC	-0.183
CTCTGAAA	-0.154
CATCTATA	-0.136
GAGCAGTA	0.0651
CCGCCCGG	-0.273
AATTATGC	0.02
GCCTCAGC	-0.244
CTCGTGTC	0.257
CTACTTTA	0.146
AGCCAGCA	-0.236
TGAGTCAA	0.17
AACGGTAC	-0.00027
